The results in this text go back to publication PMC7272632, “Liquid-liquid phase separation induces pathogenic tau conformations in vitro” (Nature Communications, 2020).

The data set deals with the molecule itself. Put plainly: far-Western, overlay or dot blot; non-denaturing dot blot of 4 µM unlabeled tau proteins after 0, 1 and 4 h in LLPS buffer with PEG, probed with the oligomer-selective antibody TOC1, signal ratioed to total tau (R1).

B1: pseudophosphorylated (S199E, S202E and T205E) AT8 tau (unlabeled) (natural protein)
chain: not shown
notes: human microtubule-associated protein tau, 441 amino acids, hT40 or 2N4R isoform, pseudophosphorylated at the AT8 sites
B1: the binding result was “binds”.
